# In the supplement of paper PMC8728848:
# This is one part of the list.
# Legend:
# Test in all cases: glycan array binding signal (z-score within array); higher = stronger binding
# Settings in all cases: glycan notation: IUPAC condensed, linker removed
# [1] = target: Neu5Ac(a2-6)Gal(b1-4)GlcNAc(b1-3)Gal(b1-4)GlcNAc(b1-3)Gal(b1-4)GlcNAc(b1-2)Man(a1-3)[Neu5Ac(a2-6)Gal(b1-4)GlcNAc(b1-3)Gal(b1-4)GlcNAc(b1-3)Gal(b1-4)GlcNAc(b1-2)Man(a1-6)]GalNAc
# Summary of the method: (§1)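 From the Consortium for Functional Glycomics database, 3228 arrays were curated, keeping only those whose protein sequence was available. Binding is given as a within-array Z-score averaged across arrays sharing a protein sequence and across linkers. Negative Z-scores can be read as non-binding.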
# [2] = target: Neu5Ac(a2-6)Gal(b1-4)GlcNAc(b1-3)Gal(b1-4)GlcNAc(b1-3)GalNAc
# Summary of the method: as §1
# [3] = target: Neu5Ac(a2-6)Gal(b1-4)GlcNAc(b1-3)Gal(b1-4)GlcNAc(b1-3)[Neu5Ac(a2-6)Gal(b1-4)GlcNAc(b1-3)Gal(b1-4)GlcNAc(b1-6)]GalNAc
# Summary of the method: as §1
# [4] = target: Neu5Ac(a2-6)Gal(b1-4)GlcNAc(b1-3)Gal(b1-4)GlcNAc(b1-6)[Gal(b1-3)]GalNAc
# Summary of the method: as §1
# [5] = target: Neu5Ac(a2-6)Gal(b1-4)GlcNAc(b1-3)Gal(b1-4)[Fuc(a1-3)]GlcNAc(b1-3)Gal(b1-4)[Fuc(a1-3)]GlcNAc
# Summary of the method: as §1
# [6] = target: Neu5Ac(a2-6)Gal(b1-4)GlcNAc(b1-3)GalNAc
# Summary of the method: as §1
# [7] = target: Neu5Ac(a2-6)Gal(b1-4)GlcNAc(b1-3)[Neu5Ac(a2-6)Gal(b1-4)GlcNAc(b1-6)]GalNAc
# Summary of the method: as §1
# [8] = target: Neu5Ac(a2-6)Gal(b1-4)GlcNAc(b1-6)GalNAc
# Summary of the method: as §1
# [9] = target: Neu5Ac(a2-6)Gal(b1-4)GlcNAc(b1-6)[Gal(b1-3)GlcNAc(b1-3)]Gal(b1-4)Glc
# Summary of the method: as §1
# [10] = target: Neu5Ac(a2-6)Gal(b1-4)GlcNAc(b1-6)[Gal(b1-3)]GalNAc
# Summary of the method: as §1
# [11] = target: Neu5Ac(a2-6)Gal(b1-4)GlcNAc6S
# Summary of the method: as §1
# [12] = target: Neu5Ac(a2-6)GalNAc
# Summary of the method: as §1
# [13] = target: Neu5Ac(a2-6)GalNAc(b1-4)GlcNAc
# Summary of the method: as §1
# [14] = target: Neu5Ac(a2-6)GalNAc(b1-4)GlcNAc6S
# Summary of the method: as §1
# [15] = target: Neu5Ac(a2-6)GlcNAc(b1-4)GlcNAc
# Summary of the method: as §1
# [16] = target: Neu5Ac(a2-6)GlcNAc(b1-4)GlcNAc(b1-4)GlcNAc
# Summary of the method: as §1
# [17] = target: Neu5Ac(a2-8)Neu5Ac
# Summary of the method: as §1
# [18] = target: Neu5Ac(a2-8)Neu5Ac(a2-3)Gal(b1-3)GalNAc(b1-4)[Neu5Ac(a2-3)]Gal(b1-4)Glc
# Summary of the method: as §1
# [19] = target: Neu5Ac(a2-8)Neu5Ac(a2-3)Gal(b1-3)GalNAc(b1-4)[Neu5Ac(a2-8)Neu5Ac(a2-3)]Gal(b1-4)Glc
# Summary of the method: as §1
# [20] = target: Neu5Ac(a2-8)Neu5Ac(a2-3)Gal(b1-4)Glc
# Summary of the method: as §1
# [21] = target: Neu5Ac(a2-8)Neu5Ac(a2-3)Gal(b1-4)GlcNAc
# Summary of the method: as §1
# [22] = target: Neu5Ac(a2-8)Neu5Ac(a2-3)[Gal(b1-3)GalNAc(b1-4)]Gal(b1-4)Glc
# Summary of the method: as §1
# [23] = target: Neu5Ac(a2-8)Neu5Ac(a2-3)[GalNAc(b1-4)]Gal(b1-4)Glc
# Summary of the method: as §1
# [24] = target: Neu5Ac(a2-8)Neu5Ac(a2-8)Neu5Ac
# Summary of the method: as §1
# [25] = target: Neu5Ac(a2-8)Neu5Ac(a2-8)Neu5Ac(a2-3)Gal(b1-4)Glc
# Summary of the method: as §1
# [26] = target: Neu5Ac(a2-8)Neu5Ac(a2-8)Neu5Ac(a2-3)[Gal(b1-3)GalNAc(b1-4)]Gal(b1-4)Glc
# Summary of the method: as §1
# [27] = target: Neu5Ac(a2-8)Neu5Ac(a2-8)Neu5Ac(a2-3)[GalNAc(b1-4)]Gal(b1-4)Glc
# Summary of the method: as §1
# [28] = target: Neu5Ac(a2-8)Neu5Ac(a2-8)Neu5Ac(a2-8)Neu5Ac(a2-3)[GalNAc(b1-4)]Gal(b1-4)Glc
# Summary of the method: as §1
# [29] = target: Neu5Ac(a2-8)Neu5Gc(a2-3)Gal(b1-4)GlcNAc
# Summary of the method: as §1
# [30] = target: Neu5Ac(b2-6)Gal(b1-4)GlcNAc
# Summary of the method: as §1
# [31] = target: Neu5Ac(b2-6)GalNAc
# Summary of the method: as §1
# [32] = target: Neu5Ac9Ac(a2-3)Gal(b1-3)GlcNAc
# Summary of the method: as §1
# [33] = target: Neu5Ac9Ac(a2-3)Gal(b1-4)GlcNAc
# Summary of the method: as §1
# [34] = target: Neu5Ac9Ac(a2-6)Gal(b1-4)GlcNAc
# Summary of the method: as §1
# [35] = target: Neu5Gc(a2-3)Gal(b1-3)GlcNAc
# Summary of the method: as §1
# [36] = target: Neu5Gc(a2-3)Gal(b1-3)[Fuc(a1-4)]GlcNAc
# Summary of the method: as §1
# [37] = target: Neu5Gc(a2-3)Gal(b1-4)Glc
# Summary of the method: as §1
# [38] = target: Neu5Gc(a2-3)Gal(b1-4)GlcNAc
# Summary of the method: as §1
# [39] = target: Neu5Gc(a2-3)Gal(b1-4)GlcNAc(b1-3)Gal(b1-4)GlcNAc(b1-2)Man(a1-3)[Neu5Gc(a2-3)Gal(b1-4)GlcNAc(b1-3)Gal(b1-4)GlcNAc(b1-2)Man(a1-6)]Man(b1-4)GlcNAc(b1-4)GlcNAc
# Summary of the method: as §1
# [40] = target: Neu5Gc(a2-3)Gal(b1-4)[Fuc(a1-3)]GlcNAc
# Summary of the method: as §1
# [41] = target: Neu5Gc(a2-6)Gal(b1-4)GlcNAc
# Summary of the method: as §1
# [42] = target: Neu5Gc(a2-6)GalNAc
# Summary of the method: as §1
# [43] = target: Neu5Gc(a2-8)Neu5Ac(a2-3)Gal(b1-4)GlcNAc
# Summary of the method: as §1
# [44] = target: Neu5Gc(a2-8)Neu5Gc(a2-3)Gal(b1-4)GlcNAc
# Summary of the method: as §1
# [45] = target: Neu5Gc(a2-8)Neu5Gc(a2-3)Gal(b1-4)GlcNAc(b1-3)Gal(b1-4)GlcNAc
# Summary of the method: as §1
# [46] = target: Neu5Gc(a2-8)Neu5Gc(a2-6)Gal(b1-4)GlcNAc
# Summary of the method: as §1
# [47] = target: Neu5Gc(b2-6)Gal(b1-4)GlcNAc
# Summary of the method: as §1
binder,measurement,setting,value
"CC1G-10077 (Coprinopsis cinerea), A8NDT7 (protein) MALNEGVYWIRNSRFTNKVLDLDAANVAKGTSILDFNEHGTFNENHNQLWIVERFQSRDTYLIRSVHSNLVLDLSQGLSANGTPILCWTQHGGTNQQWRIEWVKDDNKTPLYRIVSVATGTAISHNEDDSSAYTVAWSVDDGPKQLWSFDPFVTPLLYRLRVKSTSRVLDLAAASADNGTLALAWEQHTAITKRNQLWWLPYRSGAEEYTIQCLETSTVADLSGGNSGNGTPIYGWQSHGGRNQQWKFEPTSDSGDYYHIKNVEGGSVMDAYMNDSQKRVGGWSNNGGDNQKWLLDPLPSPGPGWVLIQNGGTGKFLCSTPSGDIGTADGPETVYDYSVQWRFIQREYTGVYHVVNRATGAYLRQIGTSMPSIGLAEENDDELKDWWMLETYDNSEIGLASIISRWTGNVLDHYGGVSVQALDNNTENSYRSWAIIPARDWLTSFSLVNGQGGLCLAAQYAREETRLSTTANVNDFHAQWVFRKPSGSSGYTIQNKYNNHYVGGTSARWELVVCCNKYFGIRNTSTQKYLAIEDGQVTFQDQDMTDRKQCWELCSGRATDTSGNDYDLIYMDDDLLEVMIPWVGDKQGDLKHYIEKRATKKPPKDKGGWQLPAAGLIKKPKFNDIRQLLQELIEQWEWDVVNEEREQIQTLVSIDEAEARRLLGRRPHPDIVAAYQRSRSSTLFRIDRQGYFNIAGDRYVNIQGQYGDDSYFHIALPVGVRFGREQIRRFLRDSLDRSTSVTITPTTCKPPSGGPDYNRDPDSDGDNSWIKWTIAVVGTSAIKHSEL",glycan array binding signal (z-score),[1],-0.354
same,glycan array binding signal (z-score),[2],-0.516
same,glycan array binding signal (z-score),[3],-0.428
same,glycan array binding signal (z-score),[4],-0.355
same,glycan array binding signal (z-score),[5],-0.434
same,glycan array binding signal (z-score),[6],-0.494
same,glycan array binding signal (z-score),[7],-0.461
same,glycan array binding signal (z-score),[8],-0.437
same,glycan array binding signal (z-score),[9],-0.06
same,glycan array binding signal (z-score),[10],-0.494
same,glycan array binding signal (z-score),[11],-0.453
same,glycan array binding signal (z-score),[12],-0.497
same,glycan array binding signal (z-score),[13],-0.403
same,glycan array binding signal (z-score),[14],-0.225
same,glycan array binding signal (z-score),[15],-0.431
same,glycan array binding signal (z-score),[16],-0.454
same,glycan array binding signal (z-score),[17],-0.507
same,glycan array binding signal (z-score),[18],-0.428
same,glycan array binding signal (z-score),[19],1.02
same,glycan array binding signal (z-score),[20],-0.471
same,glycan array binding signal (z-score),[21],-0.472
same,glycan array binding signal (z-score),[22],-0.337
same,glycan array binding signal (z-score),[23],-0.233
same,glycan array binding signal (z-score),[24],-0.448
same,glycan array binding signal (z-score),[25],-0.534
same,glycan array binding signal (z-score),[26],-0.44
same,glycan array binding signal (z-score),[27],-0.29
same,glycan array binding signal (z-score),[28],-0.332
same,glycan array binding signal (z-score),[29],-0.505
same,glycan array binding signal (z-score),[30],-0.421
same,glycan array binding signal (z-score),[31],-0.454
same,glycan array binding signal (z-score),[32],-0.477
same,glycan array binding signal (z-score),[33],-0.398
same,glycan array binding signal (z-score),[34],-0.434
same,glycan array binding signal (z-score),[35],-0.493
same,glycan array binding signal (z-score),[36],-0.458
same,glycan array binding signal (z-score),[37],-0.46
same,glycan array binding signal (z-score),[38],-0.49
same,glycan array binding signal (z-score),[39],-0.432
same,glycan array binding signal (z-score),[40],-0.475
same,glycan array binding signal (z-score),[41],-0.475
same,glycan array binding signal (z-score),[42],-0.485
same,glycan array binding signal (z-score),[43],-0.458
same,glycan array binding signal (z-score),[44],-0.434
same,glycan array binding signal (z-score),[45],-0.473
same,glycan array binding signal (z-score),[46],-0.424
same,glycan array binding signal (z-score),[47],-0.451
